Measurements as given in the RNAGym collection of RNA variant scans (doi:10.7554/elife.90254).
Read counts are not given, so values of variants with three or more changes are uncertain.

B1: LINE1-full (parent)
chain: UACGUAGGUGGUUUUCCCCUGAUAGUGCUAAGGGGGCCUGGAAGUUUGGACUGGGCAGAGCUCAACACAGCGUGGCAAAGUGGCUGUGGCUAGACUGCCUCUCUGGAUUCCUCGUCACUCAGCAGGGCAUCUCUGAGAGAAAUGCC

Variants of: B1
Test: self-cleavage, relative activity (ratio to wild type); higher = more cleavage; in vitro, sequencing; the parent is a self-cleaving ribozyme

Row | Variant | self-cleavage
1 | UACGUAGGUGGUUUUCCCCGGAUAGUGCUAAGAGGGCCUGGAAGUUUGUACUGGGCAGAGCUCAACACAGCGUGGCAAAGUGGCUGUGGCUAGACUGCCUCUCUGGAUUCCUCGUCACUCAGCAGGGCAUCUCUGAGAGAAAUGCC | 0.94
2 | UACGUAGGUGGUUUUCCCCGGAUAGUGCUAAGGUGGCCUGGAAGUUUGGACUGGGCAGAGCUCUACACAGCGUGGCAAAGUGGCUGUGGCUAGACUGCCUCUCUGGAUUCCUCGUCACUCAGCAGGGCAUCUCUGAGAGAAAUGCC | 0.43
3 | UACGUAGGUGGUUUUCCCCGGAUAGUGCUAAGGGGACCUGGGACUUUGGACUGGGCAGAGCUCAACACUGCGUGGCGUAGUGGCUGUGGCUAGACUGCCUCUCUGGAUUCCUCGUCACUCAGCAGAGCAUCUCUGAGAGAAAUGCC | 0.09
4 | UACGUAGGUGGUUUUCCCCGGAUAGUGCUAAGGGGGCCUGGAAGUUUAGACUGGGCAGAGCUCAACACAGCGUGGCAAAGUGGCUGUGGCUAGACUGCCUCUCUGGAUUCCUCGUCACUCGGCAGGGCAUCCCUGAGAGAAAUGCC | 1.98
5 | UACGUAGGUGGUUUUCCCCGGAUAGUGCUAAGGGGGCCUGGAAGUUUGGACUGGGCAUAGCUCAACACAGCGUGGCAAAGUGGCUGGGGCUAGACUGCCUCUCUGGAUCCCUCGUCACUCAGCAGGGCAUCUCUGAGAGAAAUGCC | 0
6 | UACGUAGGUGGUUUUCCCCGGAUAGUGCCAAGGGGGCCUGGAAGUUUGGACUGGGCGGAGCUCAGCACAGCGUGGCAAAGUGGCUGUGGCUAGACUGCCUCUCUGGAUUCCUCGUCACUCAGCAGGGCAUCUCUGAGAGAAAUGCC | 1.53
7 | UACGUAGGUGGUUUUCCCCGGAUAGUGCUAAGGGGGCCAGGAAGUUUGGACUGGGCAGAGCUCAACACAGCGUGGCAAGGUGGCUGUGGCUAGACUGCCUCUCUGGAUUCCUCGUCACUCAGCAGGGCAUCUCUGAGAGAAAUGCC | 0.7
8 | UACGUAGGUGGUUUUCCCCGGAUAGUGCUAAGGGGGCCCGGAAGUUUGGACUGGGCAGAGCUCAACACAGCGUGGCAAAGUGGCUGUGGCUAGACUGCCUCUCUGGAUUCCUCGUCACUCAGCAGGGCAUCUCCGAGAGAAAUGCC | 0.77
9 | UACGUAGGUGGUUUUCCCCGGAUAGUGCUAAGGGGGCCUGGAAGUAUGGACUGGGCAGAGCUCAACACUGCGUGGCAAAGUGGCUGUGGCUAGACUGCCUCUCUGGAUUCCUCGUCACUCAGCAGGGCAUCUCUGAGAGAAAUGCC | 0.03
10 | UACGUAGGUGGUUUUCCCCGGAUAGUGCUAAGGGGGCCUGGAAGUUAGGACUGGGCAGAGCUCAACACAGCGUGGCAAAGUGGCUGUGGCUAGACUGCCUCUCUGGAUUCCUCGUCACUCAGCAGGGCAUCUCUGAGAGAAAUUCC | 0.88
11 | UACGUAGGUGGUUUUCCCCGGAUAGUGCUAAGGGGGCCUGGAAGUUUGGACAGGGCAGAGCUCUACACAGCGUGGCAAAGUGGCCGAGGCUAGACUGCCUCUCUGGAUUCCUCGUCACUCAGCAGGGCAUCUCUGAGAGAAAUGCC | 0.11
12 | UACGUAGGUGGUUUUCCCCGGAUAGUGCUAAGGGGGCCUGGAAGUUUGGACUGGGCAGAGCACAACGCAGCGUGGCAAAGUGGCUGUGGCUAGACUGCCUCUCUGGAUUCCUCGUCACUCAGCAGGGCAUCUCUGAGAGAAAUGCC | 0
13 | UACGUAGGUGGUUUUCCCCGGAUAGUGCUAAGGGGGCCUGGAAGUUUGGACUGGGCAGAGCACAACACAGCGUGGCAAGGUGGCUGUGGCUAGACUGCCUCUCUGGAUUCCUCGUCACUCAGCAGGGCAUCUCUGAGAGAAAUGCC | 0.05
14 | UACGUAGGUGGUUUUCCCCGGAUAGUGCUAAGGGGGCCUGGAAGUUUGGACUGGGCAGAGCCCAACACAGCGUGGCAAAGUGGCUGUGUCUAGACUGCCUCUCUGGAUUCCUCGUCACUCGGCAGGGCAUCUCUGAGAGAAAUGCC | 0.05
15 | UACGUAGGUGGUUUUCCCCGGAUAGUGCUAAGGGGGCCUGGAAGUUUGGACUGGGCAGAGCUCAACACAGCGUGGCAAAGUGGCUGGGGCUAGACUGCCUCUCUGGAUUCCUCGUCACUCAGCAGGGCAUCUCUGAGGGAAAUGCC | 0.04
16 | UACGUAGGUGGUUUUCCCCGGAUAGUGCUAAGGGGGCCUGGAAGUUUGGACUGGGCAGAGCUCAACACAGCGUGGCAAAGUGGCUGUGGCUAGACUGCCUCUCUGGAUUCCCCGUCACUCAGCAGGGCAUCUCUGAGAGAGAUGCC | 1.16
17 | UACGUAGGUGGUUUUCCCCUAAUAGUGCUAAGGGGGCCUGGGAGUUUGGACUGGGCAGAGCUCAACACAGUGUGGCAAAGUGGCUGUGGCUAGACUGCCUCUCUGGAUUCCUCGUCACUCAGCAGGGCAUCUCUGAGAGAAAUGCC | 0.66
18 | UACGUAGGUGGUUUUCCCCUAAUAGUGCUAAGGGGGCCUGGGAGUUUGGACUGGGCAGAGCUCAACACAGCGCGGCAAAGUGGCUGUGGCUAGACUGCCUCUCUGGAUUCCUCGUCACUCAGCAGGGCACCUCUGAGUGAAAUGCC | 1.67
19 | UACGUAGGUGGUUUUCCCCUAAUAGUGCUAAGGGGGCCUGGUAGUUUGGACUGGGCAGAGCUCAACACAGCGUGGCAAAGUGGCUGUGGCUAGACUGCCUCUCUGGAUUCCACGUCACUCAGCAGGGCAUCUCUGAGAGAAAUGCC | 1.12
20 | UACGUAGGUGGUUUUCCCCUAAUAGUGCUAAGGGGGCCUGGAAGUUUGGGCUGGGCAGAGCUAAACACAGCGUGGCAAAGUGGCUGUGGCUAGACUGCCUCUCUGGAUUCCUCGUCACUCAGCAGGGCAUCUCUGAGAGAAAUGCC | 0.02
